According to PMC9911399, “Two distinct binding modes provide the RNA-binding protein RbFox with extraordinary sequence specificity”:
Numbering of substitutions follows the chain as printed; changes in the protein carry UniProt numbers. Some of the results follow.

T1: RBFOX1 RRM (Homo sapiens, UniProt Q9NWB1 109-208)
T1 sequence: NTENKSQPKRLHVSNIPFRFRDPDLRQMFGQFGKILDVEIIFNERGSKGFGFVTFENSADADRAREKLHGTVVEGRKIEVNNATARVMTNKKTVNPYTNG

B1: UUGCUGC (DNA:RNA)
RNA: GGGAGACCGGAAUUCAGAUUGUCCUUGCUGCUUAAAUCCCGUCGUAGCCACCA
DNA 1: CAATCTGAATTCCGGTCTCCC
DNA 2: TGGTGGCTACGACGGGATT
B2: GCAUAGA (DNA:RNA)
RNA: B1 RNA with U25G, U26C, G27A, C28U, U29A, C31A
DNA 1: CAATCTGAATTCCGGTCTCCC
DNA 2: TGGTGGCTACGACGGGATT
B3: GGCACGA (DNA:RNA)
RNA: B1 RNA with U25G, U26G, G27C, C28A, U29C, C31A
DNA 1: CAATCTGAATTCCGGTCTCCC
DNA 2: TGGTGGCTACGACGGGATT
B4: GCCACAU (DNA:RNA)
RNA: GGGAGACCGGAAUUCAGAUUGUCCGCCACAUUUAAAUCCCGUCGUAGCCACCA
DNA 1: CAATCTGAATTCCGGTCTCCC
DNA 2: TGGTGGCTACGACGGGATT
B5: AUACGUC (DNA:RNA)
RNA: B1 RNA with U25A, G27A, U29G, G30U
DNA 1: CAATCTGAATTCCGGTCTCCC
DNA 2: TGGTGGCTACGACGGGATT
B6: GCUGCCG (DNA:RNA)
RNA: B4 RNA with C27U, A28G, A30C, U31G
DNA 1: CAATCTGAATTCCGGTCTCCC
DNA 2: TGGTGGCTACGACGGGATT
B7: GACAGAA (DNA:RNA)
RNA: B4 RNA with C26A, C29G, U31A
DNA 1: CAATCTGAATTCCGGTCTCCC
DNA 2: TGGTGGCTACGACGGGATT
B8: UCGUUCA (DNA:RNA)
RNA: B1 RNA with U26C, C28U, G30C, C31A
DNA 1: CAATCTGAATTCCGGTCTCCC
DNA 2: TGGTGGCTACGACGGGATT
B9: CAGCAGC (DNA:RNA)
RNA: B1 RNA with U25C, U26A, U29A
DNA 1: CAATCTGAATTCCGGTCTCCC
DNA 2: TGGTGGCTACGACGGGATT
B10: GUAUUUG (DNA:RNA)
RNA: B1 RNA with U25G, G27A, C28U, G30U, C31G
DNA 1: CAATCTGAATTCCGGTCTCCC
DNA 2: TGGTGGCTACGACGGGATT
B11: UGGACGA (DNA:RNA)
RNA: B1 RNA with U26G, C28A, U29C, C31A
DNA 1: CAATCTGAATTCCGGTCTCCC
DNA 2: TGGTGGCTACGACGGGATT
B12: GAUGCCU (DNA:RNA)
RNA: B4 RNA with C26A, C27U, A28G, A30C
DNA 1: CAATCTGAATTCCGGTCTCCC
DNA 2: TGGTGGCTACGACGGGATT
B13: CCCCUUA (DNA:RNA)
RNA: B4 RNA with G25C, A28C, C29U, A30U, U31A
DNA 1: CAATCTGAATTCCGGTCTCCC
DNA 2: TGGTGGCTACGACGGGATT
B14: AGGCCCG (DNA:RNA)
RNA: B1 RNA with U25A, U26G, U29C, G30C, C31G
DNA 1: CAATCTGAATTCCGGTCTCCC
DNA 2: TGGTGGCTACGACGGGATT
B15: AAUCUUA (DNA:RNA)
RNA: B1 RNA with U25A, U26A, G27U, G30U, C31A
DNA 1: CAATCTGAATTCCGGTCTCCC
DNA 2: TGGTGGCTACGACGGGATT
B16: UAAGGUU (DNA:RNA)
RNA: B4 RNA with G25U, C26A, C27A, A28G, C29G, A30U
DNA 1: CAATCTGAATTCCGGTCTCCC
DNA 2: TGGTGGCTACGACGGGATT
B17: ACAUUAU (DNA:RNA)
RNA: B4 RNA with G25A, C27A, A28U, C29U
DNA 1: CAATCTGAATTCCGGTCTCCC
DNA 2: TGGTGGCTACGACGGGATT
B18: AGAGAUA (DNA:RNA)
RNA: GGGAGACCGGAAUUCAGAUUGUCCAGAGAUAUUAAAUCCCGUCGUAGCCACCA
DNA 1: CAATCTGAATTCCGGTCTCCC
DNA 2: TGGTGGCTACGACGGGATT
B19: GCUAAGG (DNA:RNA)
RNA: B4 RNA with C27U, C29A, A30G, U31G
DNA 1: CAATCTGAATTCCGGTCTCCC
DNA 2: TGGTGGCTACGACGGGATT
B20: GGAAACG (DNA:RNA)
RNA: B18 RNA with A25G, G28A, U30C, A31G
DNA 1: CAATCTGAATTCCGGTCTCCC
DNA 2: TGGTGGCTACGACGGGATT
B21: UGCCUCC (DNA:RNA)
RNA: B1 RNA with U26G, G27C, G30C
DNA 1: CAATCTGAATTCCGGTCTCCC
DNA 2: TGGTGGCTACGACGGGATT
B22: GGAGUCA (DNA:RNA)
RNA: B18 RNA with A25G, A29U, U30C
DNA 1: CAATCTGAATTCCGGTCTCCC
DNA 2: TGGTGGCTACGACGGGATT
B23: UUGCUAU (DNA:RNA)
RNA: B1 RNA with G30A, C31U
DNA 1: CAATCTGAATTCCGGTCTCCC
DNA 2: TGGTGGCTACGACGGGATT
B24: AUCGGCG (DNA:RNA)
RNA: B18 RNA with G26U, A27C, A29G, U30C, A31G
DNA 1: CAATCTGAATTCCGGTCTCCC
DNA 2: TGGTGGCTACGACGGGATT
B25: GGAAAAU (DNA:RNA)
RNA: B4 RNA with C26G, C27A, C29A
DNA 1: CAATCTGAATTCCGGTCTCCC
DNA 2: TGGTGGCTACGACGGGATT
B26: UCACUGA (DNA:RNA)
RNA: B1 RNA with U26C, G27A, C31A
DNA 1: CAATCTGAATTCCGGTCTCCC
DNA 2: TGGTGGCTACGACGGGATT
B27: CCCAGGG (DNA:RNA)
RNA: B4 RNA with G25C, C29G, A30G, U31G
DNA 1: CAATCTGAATTCCGGTCTCCC
DNA 2: TGGTGGCTACGACGGGATT
B28: CUGCUAA (DNA:RNA)
RNA: B1 RNA with U25C, G30A, C31A
DNA 1: CAATCTGAATTCCGGTCTCCC
DNA 2: TGGTGGCTACGACGGGATT
B29: AUAGACG (DNA:RNA)
RNA: B18 RNA with G26U, U30C, A31G
DNA 1: CAATCTGAATTCCGGTCTCCC
DNA 2: TGGTGGCTACGACGGGATT
B30: CGUGGGG (DNA:RNA)
RNA: B18 RNA with A25C, A27U, A29G, U30G, A31G
DNA 1: CAATCTGAATTCCGGTCTCCC
DNA 2: TGGTGGCTACGACGGGATT
B31: GUGACGC (DNA:RNA)
RNA: B1 RNA with U25G, C28A, U29C
DNA 1: CAATCTGAATTCCGGTCTCCC
DNA 2: TGGTGGCTACGACGGGATT

Biological target: T1, RBFOX1 RRM
Assay: EMSA; HiTS-Eq, 1 nM pool, 10 min; buffer printed only for the single-RNA assays: 10 mM Tris pH 7.5, 150 mM NaCl, 3.4 mM EDTA, 0.001% NP-40, 30 C
Conditions: tags: His6 N-terminal (pET28a); label: 5' 32P
Procedure, shortened: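 Relative association constants, normalised to the cognate motif, were derived by comparing read counts of each RNA species with those of the control reaction. The RNA sequenced was the free fraction, separated by 8% native PAGE after a 10 min equilibration in 50 µL of 1 nM 5′-radiolabelled RNA (7 randomized nucleotides) with increasing concentrations of purified wild-type or mutant RbFox RRM.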

Compared with B1, B2 is lower in binding signal: 0.0167 KA relative to UGCAUGU for the first, 0.0137 KA relative to UGCAUGU for the second.

First: B3
Second: B4
The binding signal of the first is higher: 0.0261 KA relative to UGCAUGU for the first, 0.00688 KA relative to UGCAUGU for the second.

First: B5
Second: B6
The binding signal of the first is lower: 0.00422 KA relative to UGCAUGU for the first, 0.0204 KA relative to UGCAUGU for the second.

First: B7
Second: B8
The binding signal of the first is lower: 0.00874 KA relative to UGCAUGU for the first, 0.0126 KA relative to UGCAUGU for the second.

First: B9
Second: B10
The binding signal of the first is lower: 0.00706 KA relative to UGCAUGU for the first, 0.0142 KA relative to UGCAUGU for the second.

Compared with B11, B12 is lower in binding signal: 0.0212 KA relative to UGCAUGU for the first, 0.0182 KA relative to UGCAUGU for the second.

First: B13
Second: B14
The binding signal of the first is lower: 0.0049 KA relative to UGCAUGU for the first, 0.0142 KA relative to UGCAUGU for the second.

Compared with B15, B16 is higher in binding signal: 0.00267 KA relative to UGCAUGU for the first, 0.0143 KA relative to UGCAUGU for the second.

First: B17
Second: B18
The binding signal of the first is lower: 0.000894 KA relative to UGCAUGU for the first, 0.00687 KA relative to UGCAUGU for the second.

Compared with B19, B20 is higher in binding signal: 0.0109 KA relative to UGCAUGU for the first, 0.0117 KA relative to UGCAUGU for the second.

First: B21
Second: B22
The binding signal of the first is lower: 0.00846 KA relative to UGCAUGU for the first, 0.00993 KA relative to UGCAUGU for the second.

Compared with B23, B24 is lower in binding signal: 0.0124 KA relative to UGCAUGU for the first, 0.011 KA relative to UGCAUGU for the second.

Compared with B25, B26 is higher in binding signal: 0.00757 KA relative to UGCAUGU for the first, 0.0105 KA relative to UGCAUGU for the second.

Compared with B27, B28 is higher in binding signal: 0.00478 KA relative to UGCAUGU for the first, 0.00924 KA relative to UGCAUGU for the second.

First: B29
Second: B30
The binding signal of the first is lower: 0.00421 KA relative to UGCAUGU for the first, 0.00558 KA relative to UGCAUGU for the second.

With B31 the binding signal was 0.0147 KA relative to UGCAUGU.
